Residue numbers refer to the chain shown, from its start. The list shows a part of the results.
T1: RBFOX1 RRM (Homo sapiens, UniProt Q9NWB1 109-208)
T1 sequence: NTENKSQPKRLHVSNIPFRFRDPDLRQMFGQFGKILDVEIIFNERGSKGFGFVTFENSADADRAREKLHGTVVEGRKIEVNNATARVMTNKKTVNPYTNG

B1: UAAUCCC (DNA:RNA)
RNA: GGGAGACCGGAAUUCAGAUUGUCCUAAUCCCUUAAAUCCCGUCGUAGCCACCA
DNA 1: CAATCTGAATTCCGGTCTCCC
DNA 2: TGGTGGCTACGACGGGATT
B2: UUGGCGA (DNA:RNA)
RNA: B1 RNA with A26U, A27G, U28G, C30G, C31A
DNA 1: CAATCTGAATTCCGGTCTCCC
DNA 2: TGGTGGCTACGACGGGATT
B3: AAACCAU (DNA:RNA)
RNA: B1 RNA with U25A, U28C, C30A, C31U
DNA 1: CAATCTGAATTCCGGTCTCCC
DNA 2: TGGTGGCTACGACGGGATT
B4: UGAGUAU (DNA:RNA)
RNA: B1 RNA with A26G, U28G, C29U, C30A, C31U
DNA 1: CAATCTGAATTCCGGTCTCCC
DNA 2: TGGTGGCTACGACGGGATT
B5: CGCAAAG (DNA:RNA)
RNA: GGGAGACCGGAAUUCAGAUUGUCCCGCAAAGUUAAAUCCCGUCGUAGCCACCA
DNA 1: CAATCTGAATTCCGGTCTCCC
DNA 2: TGGTGGCTACGACGGGATT
B6: ACGUUGU (DNA:RNA)
RNA: B1 RNA with U25A, A26C, A27G, C29U, C30G, C31U
DNA 1: CAATCTGAATTCCGGTCTCCC
DNA 2: TGGTGGCTACGACGGGATT
B7: GAACAUC (DNA:RNA)
RNA: B1 RNA with U25G, U28C, C29A, C30U
DNA 1: CAATCTGAATTCCGGTCTCCC
DNA 2: TGGTGGCTACGACGGGATT
B8: CUUGGCG (DNA:RNA)
RNA: B5 RNA with G26U, C27U, A28G, A29G, A30C
DNA 1: CAATCTGAATTCCGGTCTCCC
DNA 2: TGGTGGCTACGACGGGATT
B9: ACCUGGC (DNA:RNA)
RNA: B1 RNA with U25A, A26C, A27C, C29G, C30G
DNA 1: CAATCTGAATTCCGGTCTCCC
DNA 2: TGGTGGCTACGACGGGATT
B10: GUACGAC (DNA:RNA)
RNA: B1 RNA with U25G, A26U, U28C, C29G, C30A
DNA 1: CAATCTGAATTCCGGTCTCCC
DNA 2: TGGTGGCTACGACGGGATT
B11: GAUGCUU (DNA:RNA)
RNA: B1 RNA with U25G, A27U, U28G, C30U, C31U
DNA 1: CAATCTGAATTCCGGTCTCCC
DNA 2: TGGTGGCTACGACGGGATT
B12: UAAGAAU (DNA:RNA)
RNA: B1 RNA with U28G, C29A, C30A, C31U
DNA 1: CAATCTGAATTCCGGTCTCCC
DNA 2: TGGTGGCTACGACGGGATT
B13: UCGUUGG (DNA:RNA)
RNA: B1 RNA with A26C, A27G, C29U, C30G, C31G
DNA 1: CAATCTGAATTCCGGTCTCCC
DNA 2: TGGTGGCTACGACGGGATT
B14: GGCUAGA (DNA:RNA)
RNA: B5 RNA with C25G, A28U, A30G, G31A
DNA 1: CAATCTGAATTCCGGTCTCCC
DNA 2: TGGTGGCTACGACGGGATT
B15: GUCGUUC (DNA:RNA)
RNA: B5 RNA with C25G, G26U, A28G, A29U, A30U, G31C
DNA 1: CAATCTGAATTCCGGTCTCCC
DNA 2: TGGTGGCTACGACGGGATT
B16: CAAAGCU (DNA:RNA)
RNA: B1 RNA with U25C, U28A, C29G, C31U
DNA 1: CAATCTGAATTCCGGTCTCCC
DNA 2: TGGTGGCTACGACGGGATT
B17: ACCAAGA (DNA:RNA)
RNA: B5 RNA with C25A, G26C, A30G, G31A
DNA 1: CAATCTGAATTCCGGTCTCCC
DNA 2: TGGTGGCTACGACGGGATT
B18: CGCACUC (DNA:RNA)
RNA: B5 RNA with A29C, A30U, G31C
DNA 1: CAATCTGAATTCCGGTCTCCC
DNA 2: TGGTGGCTACGACGGGATT
B19: CCAGGCG (DNA:RNA)
RNA: B5 RNA with G26C, C27A, A28G, A29G, A30C
DNA 1: CAATCTGAATTCCGGTCTCCC
DNA 2: TGGTGGCTACGACGGGATT
B20: GUAGGGA (DNA:RNA)
RNA: B1 RNA with U25G, A26U, U28G, C29G, C30G, C31A
DNA 1: CAATCTGAATTCCGGTCTCCC
DNA 2: TGGTGGCTACGACGGGATT

molecular target: T1, RBFOX1 RRM; experiment: EMSA; HiTS-Eq, 1 nM pool, 10 min; buffer printed only for the single-RNA assays: 10 mM Tris pH 7.5, 150 mM NaCl, 3.4 mM EDTA, 0.001% NP-40, 30 C; conditions: tags: His6 N-terminal (pET28a); label: 5' 32P
Summary of the method: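 A pool of RNA with 7 randomized nucleotides, 5′-radiolabelled and with DNA-annealed flanks, was equilibrated at 1 nM for 10 min in 50 µL with purified RbFox RRM, wild type or mutant, across increasing protein concentrations. Free RNA was separated by 8% native PAGE, excised, reverse-transcribed, barcoded by PCR and sequenced. Relative association constants were obtained from read-count changes of each RNA species versus the control reaction and normalised to the cognate motif.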

**Q.** How did the binding signal turn out when B1 was run?
**A.** 0.00365 KA relative to UGCAUGU

**Q.** With B2 as the binder, how does the binding signal read?
**A.** 0.0201 KA relative to UGCAUGU

**Q.** For B3, which binding signal is on record?
**A.** 0.000334 KA relative to UGCAUGU

**Q.** With B4 as the binder, how does the binding signal read?
**A.** 0.013 KA relative to UGCAUGU

**Q.** How did the binding signal turn out when B5 was run?
**A.** 0.00606 KA relative to UGCAUGU

**Q.** B6 was tested. Which binding signal did it give?
**A.** 0.0125 KA relative to UGCAUGU

**Q.** For B7, which binding signal is on record?
**A.** 0.00261 KA relative to UGCAUGU

**Q.** With B8 as the binder, how does the binding signal read?
**A.** 0.0206 KA relative to UGCAUGU

**Q.** With B9 as the binder, how does the binding signal read?
**A.** 0.0129 KA relative to UGCAUGU

**Q.** How did the binding signal turn out when B10 was run?
**A.** 0.0085 KA relative to UGCAUGU

**Q.** How did the binding signal turn out when B11 was run?
**A.** 0.0201 KA relative to UGCAUGU

**Q.** For B12, which binding signal is on record?
**A.** 0.00854 KA relative to UGCAUGU

**Q.** With B13 as the binder, how does the binding signal read?
**A.** 0.0263 KA relative to UGCAUGU

**Q.** How did the binding signal turn out when B14 was run?
**A.** 0.0109 KA relative to UGCAUGU

**Q.** Which binding signal does the source give for B15 here?
**A.** 0.0139 KA relative to UGCAUGU

**Q.** With B16 as the binder, how does the binding signal read?
**A.** 0.00391 KA relative to UGCAUGU

**Q.** For B17, which binding signal is on record?
**A.** 0.00182 KA relative to UGCAUGU

**Q.** How did the binding signal turn out when B18 was run?
**A.** 0.00942 KA relative to UGCAUGU

**Q.** How did the binding signal turn out when B19 was run?
**A.** 0.00983 KA relative to UGCAUGU

**Q.** With B20 as the binder, how does the binding signal read?
**A.** 0.00497 KA relative to UGCAUGU
